In ChEMBL document CHEMBL4888484, “Replenishing the malaria drug discovery pipeline: Screening and hit evaluation of the MMV Hit Generation Library 1 (HGL1) against asexual blood stage Plasmodium falciparum ,using a nano luciferase reporter read-out” (2022):
Screen size: about 150,000 compounds; about 540 (0.36%) showed an effect of 50% or more. Some of the results follow.

Test system: Plasmodium falciparum
Assay: Primary screen in NF54 nanoGlo assay, in single point, at 2uM, 72h; a lower Z score goes with more inhibition
Assay type: functional, Erythrocyte
Conditions: timepoint 72 hour

Compared with `CN1CCN([C@@H]2COC3(C2)CN(C(=O)c2ccc4ccccc4n2)C3)CC1`, `O=C(c1ccoc1)N1CCC2(CC1)C[C@@H](Cc1nc(-c3ccncc3)no1)CCO2` is higher in “% Inhibition” value: -15% for the first, -7% for the second.

First: O=C(NC1(CO)CC1)C1CC12CCOc1ccccc12 (stereo not drawn)
Second: COCC(NCC(=O)N1C(C)CCCC1C)c1ccccc1 (stereo not drawn)
The “% Inhibition” value of the first is lower: -9% for the first, -4% for the second.

First: O=C(NCc1cccnc1)[C@]1(F)CCCN(S(=O)(=O)c2ccc3c(c2)CCC3)C1
Second: O=C1CCN(S(=O)(=O)c2ccc3c(c2)OCCO3)CCCCCCN1
The “% Inhibition” value of the first is lower: -21% for the first, 4% for the second.

Compared with `CO[C@H]1CCN(c2ccc(C(=O)NCCc3cccs3)cc2)C1`, `COc1ccccc1CNC[C@H]1CCCc2ccc(C(=O)O)cc21` is higher in “% Inhibition” value: -17% for the first, -2% for the second.

Compared with `CCc1noc(CN(C)S(=O)(=O)c2cncc(Cl)c2)n1`, `CCc1noc(C)c1NC(=O)N(C)Cc1nccs1` is higher in “% Inhibition” value: -8% for the first, -4% for the second.

Compared with `CN(CC#N)C(=O)C1(C2CC2)CCOCC1`, `O=C(C[C@H]1CCOC1)N1CCC(OCc2ccccn2)CC1` is higher in “% Inhibition” value: -12% for the first, -6% for the second.

Compared with `O=C(O)C[C@H]1CN(C(=O)COCC2CC2)CCO1`, `CC(=O)N1CC(OCC(=O)N2CCN(c3ccccc3)[C@@H](C)C2)C1` is lower in “% Inhibition” value: 0% for the first, -15% for the second.

First: OC1CC(Nc2ncnc3c(F)cccc23)C1n1cccn1 (stereo not drawn)
Second: c1ccc(-c2nccn2[C@H]2CCc3ccccc3C2)nc1
The “% Inhibition” value of the first is lower: -9% for the first, -3% for the second.

Compared with `O=C(NCC1CC1)C1CN(C(=O)c2cccc(Cl)c2)CC1c1cccc(C(F)(F)F)c1` (stereo not drawn), `O=C(Cn1cc(C(F)(F)F)ccc1=O)Nc1cccc2ccccc12` is higher in “% Inhibition” value: -13% for the first, -9% for the second.

First: COc1ccc(NS(=O)(=O)c2cc(NC(=O)c3ccccc3NS(=O)(=O)c3cc(C)ccc3C)ccc2C)cc1
Second: Cc1ccc(NC(=O)NCc2ccc3c(c2)N(C(=O)c2ccccc2)[C@@H](C)C3)cc1C
The “% Inhibition” value of the first is lower: -3% for the first, 16% for the second.

Going from `c1ccc(COc2ccc(CN3CC(c4nc(C5CC5)no4)C3)cc2)cc1` to `O[C@H]1CN(Cc2nnc(-c3ccccc3)o2)CCN(C2CCCC2)C1`, the “% Inhibition” value rises from -17% to 12%.

Going from `COCCn1ccc(N[C@H]2CC(C)(C)OC2(C)C)n1` to `COCCC(CO)NC(=O)C1CCC=CN1C(=O)OC(C)(C)C` (stereo not drawn), the “% Inhibition” value falls from -4% to -7%.

Compared with `Cc1nsc(N2CC[C@@H]3CCCC[C@@H]32)n1`, `CC[C@H]1CCCCN1C(=O)Cn1cc(CN2CCC(O)CC2)nn1` is lower in “% Inhibition” value: -6% for the first, -8% for the second.

Going from `Cc1ccc([C@@H]2Cn3nnc(-c4nc(-c5ccc(F)c(F)c5)no4)c3CO2)c(C)c1` to `Cc1cc(C)nc(-n2nc(C)c3c2N(Cc2ccc(F)cc2)C(=O)C[C@@H]3c2ccc(Cl)cc2)n1`, the “% Inhibition” value falls from -14% to -16%.

First: Cn1c(=O)[nH]c(=O)c2cc(S(=O)(=O)N3CCN4CCOc5cccc3c54)cnc21
Second: CCCS(=O)(=O)N1CCN(c2nc(C3CC3)nc(CC)c2Cc2cccc(Cl)c2)CC1
The “% Inhibition” value of the first is higher: -1% for the first, -20% for the second.

First: C[C@H](NCC(=O)Nc1ccc(C#N)cc1)c1ncn(C)n1
Second: Cc1noc(NC(=O)c2cccn2C)c1-c1ccccc1
The “% Inhibition” value of the first is higher: -9% for the first, -16% for the second.

Compared with `CC(N[C@H](CO)Cc1ccccc1)C(C)(C)O` (stereo partly drawn), `CC(C)(C)OC(=O)N/N=C(\Cc1ccccc1)NC1CCCC1` is higher in “% Inhibition” value: -6% for the first, 0% for the second.

Compared with `Cc1ccc(O[C@H]2COCC[C@H]2NC(=O)c2ccncc2F)cn1`, `Cc1ccc(C(=O)Nc2ncc(Cc3ccc(F)c(F)c3F)s2)cn1` is higher in “% Inhibition” value: -10% for the first, 3% for the second.

Compared with `CO[C@H]1CCCN(Cc2cc3cc(F)ccc3[nH]2)C1`, `CCN1CCC(CNC(=O)c2ccc3[nH]c4c(c3c2)CCCC4)CC1` is lower in “% Inhibition” value: 3% for the first, -3% for the second.

First: CC(C)NC(=O)N1C[C@@H](F)C[C@H]1CO
Second: CC(C)OCCCCNC(=O)N1C[C@@H](C)O[C@@H](C)C1
The “% Inhibition” value of the first is lower: -9% for the first, -2% for the second.

Going from `COc1ccc(-c2c3c(C)nn(-c4ccccc4)c3nc3[nH]c(=O)[nH]c(=O)c23)cc1O` to `Cn1nc(-c2ccccc2)c2[nH]c(-c3ccsc3)nc21`, the “% Inhibition” value rises from -10% to 0%.

Compared with `Cc1ccc2c(c1)CCCN2C(=O)c1ccc(N2CCOCC2)nn1`, `Cc1nc(N2CCC(C)CC2)ncc1-c1cc(=O)[nH]c(N2CCOCC2)n1` is higher in “% Inhibition” value: -14% for the first, -9% for the second.

First: Cc1nc(Oc2cccc(NC(=O)c3ccccc3)c2)c(C#N)c(C)c1Cl
Second: O=C(NCc1ccc(C(=O)Nc2cccnc2)cc1)c1cc(O)c2ccccc2c1
The “% Inhibition” value of the first is higher: -5% for the first, -11% for the second.

Compared with `Nc1ccc2c(N3CCc4ccc(F)cc4C3)ncnc2n1`, `Clc1ccc(-c2cn3c4ccccc4n(CCN4CCOCC4)c3n2)cc1Cl` is lower in “% Inhibition” value: -13% for the first, -18% for the second.

First: CNS(=O)(=O)CCNC(=O)c1ccccc1
Second: CC(C)[C@@H](O)CN1CCn2c(Cc3ccccc3F)nnc2C1
The “% Inhibition” value of the first is lower: -5% for the first, 3% for the second.

First: CN1CCC(C(=O)Nc2nc3c(s2)C[C@@H](NC(=O)OC(C)(C)C)CC3)CC1=O (stereo partly drawn)
Second: O=C1CC[C@@H]2CN(c3ccnc4ccccc34)CC[C@@H]2N1CCCCO
The “% Inhibition” value of the first is lower: -12% for the first, 4% for the second.

Compared with `C[C@@H]1CN(C(=O)Nc2cnns2)C[C@H](C)O1`, `COc1ccc(S(=O)(=O)N2CC(S(=O)(=O)Cc3ccco3)C2)cc1Cl` is lower in “% Inhibition” value: 3% for the first, -18% for the second.

Compared with `CN1CCN([C@@H]2COC3(C2)CN(C(=O)c2ccc4ccccc4n2)C3)CC1`, `O=C(c1ccoc1)N1CCC2(CC1)C[C@@H](Cc1nc(-c3ccncc3)no1)CCO2` is lower in Z score: 2.32 for the first, 0.9 for the second.

Going from `O=C(NC1(CO)CC1)C1CC12CCOc1ccccc12` (stereo not drawn) to `COCC(NCC(=O)N1C(C)CCCC1C)c1ccccc1` (stereo not drawn), the Z score falls from 1.69 to 0.61.

Going from `O=C(NCc1cccnc1)[C@]1(F)CCCN(S(=O)(=O)c2ccc3c(c2)CCC3)C1` to `O=C1CCN(S(=O)(=O)c2ccc3c(c2)OCCO3)CCCCCCN1`, the Z score falls from 1.84 to -0.48.

First: CO[C@H]1CCN(c2ccc(C(=O)NCCc3cccs3)cc2)C1
Second: COc1ccccc1CNC[C@H]1CCCc2ccc(C(=O)O)cc21
The Z score of the first is higher: 2.13 for the first, 0.43 for the second.

Going from `CCc1noc(CN(C)S(=O)(=O)c2cncc(Cl)c2)n1` to `CCc1noc(C)c1NC(=O)N(C)Cc1nccs1`, the Z score falls from 1.14 to 0.58.

First: CN(CC#N)C(=O)C1(C2CC2)CCOCC1
Second: O=C(C[C@H]1CCOC1)N1CCC(OCc2ccccn2)CC1
The Z score of the first is higher: 1.47 for the first, 0.87 for the second.

Going from `O=C(O)C[C@H]1CN(C(=O)COCC2CC2)CCO1` to `CC(=O)N1CC(OCC(=O)N2CCN(c3ccccc3)[C@@H](C)C2)C1`, the Z score rises from 0.07 to 3.07.

First: OC1CC(Nc2ncnc3c(F)cccc23)C1n1cccn1 (stereo not drawn)
Second: c1ccc(-c2nccn2[C@H]2CCc3ccccc3C2)nc1
The Z score of the first is higher: 1.63 for the first, 0.53 for the second.

Compared with `O=C(NCC1CC1)C1CN(C(=O)c2cccc(Cl)c2)CC1c1cccc(C(F)(F)F)c1` (stereo not drawn), `O=C(Cn1cc(C(F)(F)F)ccc1=O)Nc1cccc2ccccc12` is lower in Z score: 1.8 for the first, 1.54 for the second.

First: COc1ccc(NS(=O)(=O)c2cc(NC(=O)c3ccccc3NS(=O)(=O)c3cc(C)ccc3C)ccc2C)cc1
Second: Cc1ccc(NC(=O)NCc2ccc3c(c2)N(C(=O)c2ccccc2)[C@@H](C)C3)cc1C
The Z score of the first is higher: 0.39 for the first, -1.85 for the second.

First: c1ccc(COc2ccc(CN3CC(c4nc(C5CC5)no4)C3)cc2)cc1
Second: O[C@H]1CN(Cc2nnc(-c3ccccc3)o2)CCN(C2CCCC2)C1
The Z score of the first is higher: 3.18 for the first, -1.64 for the second.

Going from `COCCn1ccc(N[C@H]2CC(C)(C)OC2(C)C)n1` to `COCCC(CO)NC(=O)C1CCC=CN1C(=O)OC(C)(C)C` (stereo not drawn), the Z score rises from 0.48 to 1.19.

Going from `Cc1nsc(N2CC[C@@H]3CCCC[C@@H]32)n1` to `CC[C@H]1CCCCN1C(=O)Cn1cc(CN2CCC(O)CC2)nn1`, the Z score rises from 0.97 to 1.09.

Going from `Cc1ccc([C@@H]2Cn3nnc(-c4nc(-c5ccc(F)c(F)c5)no4)c3CO2)c(C)c1` to `Cc1cc(C)nc(-n2nc(C)c3c2N(Cc2ccc(F)cc2)C(=O)C[C@@H]3c2ccc(Cl)cc2)n1`, the Z score rises from 1.29 to 2.27.

Compared with `Cn1c(=O)[nH]c(=O)c2cc(S(=O)(=O)N3CCN4CCOc5cccc3c54)cnc21`, `CCCS(=O)(=O)N1CCN(c2nc(C3CC3)nc(CC)c2Cc2cccc(Cl)c2)CC1` is higher in Z score: 0.11 for the first, 1.88 for the second.

Compared with `C[C@H](NCC(=O)Nc1ccc(C#N)cc1)c1ncn(C)n1`, `Cc1noc(NC(=O)c2cccn2C)c1-c1ccccc1` is higher in Z score: 1.01 for the first, 3.03 for the second.

First: CC(N[C@H](CO)Cc1ccccc1)C(C)(C)O (stereo partly drawn)
Second: CC(C)(C)OC(=O)N/N=C(\Cc1ccccc1)NC1CCCC1
The Z score of the first is higher: 1.14 for the first, 0 for the second.

Compared with `Cc1ccc(O[C@H]2COCC[C@H]2NC(=O)c2ccncc2F)cn1`, `Cc1ccc(C(=O)Nc2ncc(Cc3ccc(F)c(F)c3F)s2)cn1` is lower in Z score: 1.07 for the first, -0.56 for the second.

Compared with `CO[C@H]1CCCN(Cc2cc3cc(F)ccc3[nH]2)C1`, `CCN1CCC(CNC(=O)c2ccc3[nH]c4c(c3c2)CCCC4)CC1` is higher in Z score: -0.44 for the first, 0.33 for the second.

Compared with `CC(C)NC(=O)N1C[C@@H](F)C[C@H]1CO`, `CC(C)OCCCCNC(=O)N1C[C@@H](C)O[C@@H](C)C1` is lower in Z score: 0.86 for the first, 0.26 for the second.

First: COc1ccc(-c2c3c(C)nn(-c4ccccc4)c3nc3[nH]c(=O)[nH]c(=O)c23)cc1O
Second: Cn1nc(-c2ccccc2)c2[nH]c(-c3ccsc3)nc21
The Z score of the first is higher: 1.25 for the first, -0.06 for the second.

First: Cc1ccc2c(c1)CCCN2C(=O)c1ccc(N2CCOCC2)nn1
Second: Cc1nc(N2CCC(C)CC2)ncc1-c1cc(=O)[nH]c(N2CCOCC2)n1
The Z score of the first is higher: 1.85 for the first, 1.3 for the second.

Going from `Cc1nc(Oc2cccc(NC(=O)c3ccccc3)c2)c(C#N)c(C)c1Cl` to `O=C(NCc1ccc(C(=O)Nc2cccnc2)cc1)c1cc(O)c2ccccc2c1`, the Z score rises from 0.7 to 1.31.

Compared with `Nc1ccc2c(N3CCc4ccc(F)cc4C3)ncnc2n1`, `Clc1ccc(-c2cn3c4ccccc4n(CCN4CCOCC4)c3n2)cc1Cl` is lower in Z score: 1.99 for the first, 1.61 for the second.

First: CNS(=O)(=O)CCNC(=O)c1ccccc1
Second: CC(C)[C@@H](O)CN1CCn2c(Cc3ccccc3F)nnc2C1
The Z score of the first is higher: 0.55 for the first, -0.49 for the second.

Going from `CN1CCC(C(=O)Nc2nc3c(s2)C[C@@H](NC(=O)OC(C)(C)C)CC3)CC1=O` (stereo partly drawn) to `O=C1CC[C@@H]2CN(c3ccnc4ccccc34)CC[C@@H]2N1CCCCO`, the Z score falls from 1.42 to -0.73.

Going from `C[C@@H]1CN(C(=O)Nc2cnns2)C[C@H](C)O1` to `COc1ccc(S(=O)(=O)N2CC(S(=O)(=O)Cc3ccco3)C2)cc1Cl`, the Z score rises from -0.4 to 2.26.
